What all share (assay): Primary Screen for Target Class Profiling of Small Molecule Inhibitors of Methyltransferases
The target of assay [1] is Glycine N-methyltransferase (Homo sapiens) (UniProt Q14749). Conditions: purified enzyme, MTase-Glo SAH luminescence; measured here: GNMT inhibition; at 40 µM; stronger effect = lower value. In short, it runs like this: (§1)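 Each enzyme was reacted with SAM and its substrate, with compounds tested once at 40 uM; SAH formed was read by MTase-Glo luminescence.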
Assay [2] has as its target Guanidinoacetate N-methyltransferase (Homo sapiens) (UniProt Q14353). The following applies: purified enzyme, MTase-Glo SAH luminescence; measured here: GAMT inhibition; at 40 µM; stronger effect = lower value. An outline of the steps:
as §1

Assay [3] concerns the target Histamine N-methyltransferase (Homo sapiens) (UniProt P50135). Conditions: purified enzyme, MTase-Glo SAH luminescence; measured here: HNMT inhibition; at 40 µM; stronger effect = lower value. In short, it runs like this: as §1
Assay [4] addresses Nicotinamide N-methyltransferase (Homo sapiens) (UniProt P40261). The following applies: purified enzyme, MTase-Glo SAH luminescence; measured here: NNMT inhibition; at 40 µM; stronger effect = lower value. In short, it runs like this:
as §1

The target in assay [5] is Phenylethanolamine N-methyltransferase (Homo sapiens) (UniProt P11086). Conditions: purified enzyme, MTase-Glo SAH luminescence; measured here: PNMT inhibition; at 40 µM; stronger effect = lower value. In short, it runs like this: as §1

Some of the results follow. The main result of the screen is listed elsewhere. These columns were measured beside it and carry no call.
% is set by controls: 0 for no effect and ±100 for the full control effect.

`Cc1ccc(Cl)cc1N1CCN(S(=O)(=O)c2ccc3[nH]c4c(c3c2)CCCC4)CC1`: the activity change, negative = inhibition in assay [1] was -3.1%; in assay [2], 5.18%; in assay [3], -4.21%; in assay [4], 2.12%; in assay [5], 1.9%.
On to `CNC(=O)C(C)N(C)C(=O)c1coc(CN2CCN(c3ccccc3F)CC2)n1` (stereo not given), for which the activity change, negative = inhibition in assay [1] is -2.27%; in assay [2] it was -1.63%; in assay [3], -0.129%; in assay [4] it was -9.97%; in assay [5], -2.42%.
For the compound `COc1ccc(CN2CCCC3(CC(c4cccc(C(F)(F)F)c4)=NO3)C2)cc1` (stereo not given), the activity change, negative = inhibition in assay [1] is -4.68%; in assay [2], -1.37%; in assay [3], -6.99%; in assay [4], -9.71%; in assay [5], -8.67%.
As to `CC1(C)C[C@H](NCC2CCCCC2)[C@@]2(CCC(=O)N3CCCC3)CC[C@](C)(O)C[C@@H]12`, the activity change, negative = inhibition is 1.28% in assay [1]; 3.65% in assay [2]; -3.41% in assay [3]; -2.26% in assay [4]; 2.42% in assay [5].
Consider `C/C1=C\CC[C@]2(C)O[C@@H]2[C@H](O)[C@H](C(C)C)[C@H](OC(=O)/C=C/c2ccccc2)C1`, for which the activity change, negative = inhibition in assay [1] was -1.5%; in assay [2], 5.14%; in assay [3], 5.84%; in assay [4], -8.16%; in assay [5], 0.857%.
As to `COC(=O)c1cc2n(n1)CC(C)(C(=O)NC1CCCCC1)N(Cc1ccccc1Cl)C2=O` (stereo not given), the activity change, negative = inhibition is 2.81% in assay [1]; 4.97% in assay [2]; 5.73% in assay [3]; 3.39% in assay [4]; -3.56% in assay [5].
Regarding `COc1ccccc1CNC(=O)C1(C)Cn2c(cc3ccccc32)C(=O)N1Cc1ccc(Cl)cc1` (stereo not given), the activity change, negative = inhibition in assay [1] was -3.83%; in assay [2], -2.95%; in assay [3], 0.071%; in assay [4], -5.58%; in assay [5], -5.27%.
In the case of `O=C(Nc1ccc(Cl)cc1)N1Cc2c(sc3c2CCCC3)-n2cccc2C1c1cccc(F)c1` (stereo not given), the activity change, negative = inhibition was 1.99% in assay [1]; 0.076% in assay [2]; 6.04% in assay [3]; -2.04% in assay [4]; 6.24% in assay [5].
`N.N.O=C(O)C1(C(=O)O)CCC1.[Pt+2]`: the activity change, negative = inhibition in assay [1] was -95.7%; in assay [2], 3.45%; in assay [3] it was -2.08%; in assay [4] it was -3.8%; in assay [5], 8.23%.
With `CN(C)C/C=C(/c1ccc(Br)cc1)c1cccnc1`, the activity change, negative = inhibition was -18.2% in assay [1]; -0.608% in assay [2]; -95.4% in assay [3]; -15.6% in assay [4]; 1.88% in assay [5].
For `C=Cc1ccc(Cn2nc3n(Cc4ccccc4)c(=O)c4ccccc4n3c2=O)cc1`, in that order: 1.33%, 0%, 6.59%, 1.16% and 0.607%.
For `CC(C)CCOc1ccc2c(-c3ccccc3)cc(=O)oc2c1`, in that order: 2%, 0.18%, 9.98%, 4.32% and -2.87%.
As for `NC/C=C/C(=O)O`, the activity change, negative = inhibition in assay [1] was 2.33%; in assay [2], 12.6%; in assay [3] it was 7.9%; in assay [4], -2.7%; in assay [5], 4.45%.
In the case of `Cn1c(=O)c2ccc(C(=O)NC3CCCC3)cc2n2c(SCC(=O)Nc3ccc(F)cc3)nnc12`, the activity change, negative = inhibition in assay [1] is -3.71%; in assay [2], 4.33%; in assay [3], 2.44%; in assay [4], -1.97%; in assay [5], 0.819%.
On to `CCN(CC)c1cc(CCC(=O)NCCCN2CCOCC2)ccn1`, for which the activity change, negative = inhibition in assay [1] is -2.47%; in assay [2], -3.35%; in assay [3], -19.9%; in assay [4], -8.26%; in assay [5], -2.61%.
`CNC(=O)[C@@H](CC(C)C)N1CCC[C@H]1C(=O)NCCc1ccccn1`: the activity change, negative = inhibition in assay [1] is -0.327%; in assay [2] it was -1.16%; in assay [3] it was 1.73%; in assay [4] it was 0.216%; in assay [5] it was -6.27%.
For `O=C(N1CCC2(CCNCC2)CC1)C1(S(=O)(=O)c2ccccc2)CC1`, in that order: -1.54%, 2.87%, -14.2%, -0.015% and 1.92%.
`CCN(CC)CCOC(=O)c1cc(Cl)c(N)cc1OC`: the activity change, negative = inhibition was -0.629% in assay [1]; 8.45% in assay [2]; -6.38% in assay [3]; -6.28% in assay [4]; 2.38% in assay [5].
In the case of `CC(C)Cn1c(=O)c2ccccc2n2c(=O)n(CC(=O)N3CCN(c4ccccc4F)CC3)nc12`, the activity change, negative = inhibition in assay [1] worked out at 3.43%; in assay [2] it was 0%; in assay [3] it was 9.4%; in assay [4], 5.55%; in assay [5] it was 3.37%.
As for `COc1ccccc1CNC(=O)C1(C)Cn2c(cc3ccccc32)C(=O)N1Cc1cccs1` (stereo not given), the activity change, negative = inhibition in assay [1] is 0.19%; in assay [2], 0.655%; in assay [3] it was 3.47%; in assay [4], -2.8%; in assay [5], 0.012%.
With `CC(=O)N1CCN(CC[C@H]2CN(C(=O)c3ccnc(Cl)c3)CC[C@H]2CC(=O)O)CC1`, the activity change, negative = inhibition in assay [1] is -2.17%; in assay [2], -1.97%; in assay [3] it was 1.42%; in assay [4], -6.22%; in assay [5], -2.52%.
With `CN(C)Cc1cc(C[C@@H]2C[C@H](NCc3ccc(F)cc3)C2(C)C)no1`, the activity change, negative = inhibition was -4.7% in assay [1]; -2.98% in assay [2]; -14.1% in assay [3]; -8.51% in assay [4]; -4.6% in assay [5].
Turning to `CCOC(=O)c1cc2n(n1)CC(C)(C(=O)NC1CCCC1)N(c1ccc(Cl)cc1C)C2=O` (stereo not given), the activity change, negative = inhibition is 7.47% in assay [1]; 1.17% in assay [2]; 6.83% in assay [3]; 9.43% in assay [4]; 6.61% in assay [5].
`Cc1cccc(-c2n[nH]n3c2nc(=O)c2ccc(C(=O)NCc4ccccc4Cl)cc23)c1`: the activity change, negative = inhibition was -7.5% in assay [1]; 0.687% in assay [2]; -2.83% in assay [3]; -13% in assay [4]; -9.27% in assay [5].
Regarding `C=C[C@@]12COC(=O)C(=C)C1[C@@H](O)[C@H](C(=C)C(=O)OC)[C@@H](OC(=O)C(=C)CO)C2` (stereo not given in full), the activity change, negative = inhibition in assay [1] is -7.32%; in assay [2] it was -5.32%; in assay [3], -26.7%; in assay [4], -15.3%; in assay [5], 0.258%.
Regarding `CCCn1c(=O)c2ccc(C(=O)NC3CCCC3)cc2n2c(=O)n(CC(=O)NC(C)C)nc12`, the activity change, negative = inhibition in assay [1] is 5.63%; in assay [2] it was 0%; in assay [3], 8.26%; in assay [4], 7%; in assay [5] it was 4.18%.
On the same counts, the results for `C/C=C(/C)C(=O)O[C@H]1[C@H](OC(=O)/C(C)=C\C)[C@@]23C(CC1(C)C)[C@]1(CCC4[C@@]5(C)CC[C@H](O[C@@H]6O[C@H](C(=O)O)[C@@H](O)[C@H](O[C@@H]7O[C@H](CO)[C@H](O)[C@H](O)[C@H]7O[C@@H]7O[C@@H](C)[C@H](O)[C@@H](O)[C@H]7O[C@@H]7OC[C@@H](O)[C@H](O)[C@H]7O)[C@H]6O[C@@H]6O[C@H](CO)[C@H](O)[C@H](O)[C@H]6O)C(C)(C)C5CC[C@@]4(C)[C@]1(C)C[C@H]2O)O[C@H]3O` (stereo not given in full) are 1.62%, 7.61%, 5.81%, 2.69% and 4.99%.
Take `CC(=O)N[C@@H](Cc1c[nH]c2ccccc12)C(=O)OCc1cc(C(F)(F)F)cc(C(F)(F)F)c1`: the activity change, negative = inhibition is -11.1% in assay [1]; 15.5% in assay [2]; 11.3% in assay [3]; -8.18% in assay [4]; 6.24% in assay [5].
Regarding `CS(=O)(=O)N1CC2(CCCN(Cc3cccnc3)C2)Cc2ccccc21` (stereo not given), the activity change, negative = inhibition in assay [1] was -8.6%; in assay [2], -9.46%; in assay [3], -7.73%; in assay [4], -13%; in assay [5] it was -6.93%.

The values above are taken from PubChem BioAssay AID1745853 (National Center for Advancing Translational Sciences (NCATS), 2022).
